Experimental data: patent US20030007968A1 (published 2003)
Values belong to the binder of their own block, whether it stands above or below them.

Key:
CD86Ig [1] = target: T1, CD86Ig (UniProt P42081 24-247, limits assumed); test: SPR screening of COS culture media over immobilized CD86Ig
T1 construct: Immobilized on the BIAcore chip by amine coupling; also called soluble CD86Ig
T1 sequence (looked up): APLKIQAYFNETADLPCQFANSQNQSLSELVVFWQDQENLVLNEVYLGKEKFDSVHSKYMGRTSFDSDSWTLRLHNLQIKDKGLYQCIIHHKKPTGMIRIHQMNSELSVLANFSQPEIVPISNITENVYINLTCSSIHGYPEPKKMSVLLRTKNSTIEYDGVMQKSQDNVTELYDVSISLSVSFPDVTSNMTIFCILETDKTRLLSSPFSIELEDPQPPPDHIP

CD80Ig [2] = target: T2, CD80Ig (UniProt P33681 35-242, limits assumed); test: SPR (BIAcore), equilibrium, CD80Ig immobilized, purified monomeric analyte
T2 construct: Immobilized on the BIAcore chip by amine coupling; also called soluble CD80Ig
T2 sequence (looked up): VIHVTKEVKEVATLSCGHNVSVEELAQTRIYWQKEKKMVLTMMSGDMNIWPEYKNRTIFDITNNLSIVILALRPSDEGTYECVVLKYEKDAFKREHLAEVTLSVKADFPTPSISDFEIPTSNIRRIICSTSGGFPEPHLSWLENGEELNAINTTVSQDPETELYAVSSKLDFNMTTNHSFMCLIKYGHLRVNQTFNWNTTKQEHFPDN

CD86Ig [3] = target: T1, CD86Ig; test: SPR (BIAcore), CD86Ig immobilized, purified monomeric analyte
CD86Ig [4] = target: T1, CD86Ig; test: SPR (BIAcore), equilibrium, CD86Ig immobilized, purified monomeric analyte
CD80Ig [5] = target: T2, CD80Ig; test: SPR (BIAcore), CD80Ig immobilized, purified monomeric analyte

- fold slower “off” rate than wild type CTLA4Ig (CD86Ig [1]): ~4 fold
B1: L104EA29LIg (Fc fusion)
chain: MHVAQPAVVLASSRGIASFVCEYASPGKLTEVRVTVLRQADSQVTEVCAATYMMGNELTFLDDSICTGTSSGNQVNLTIQGLRAMDTGLYICKVELMYPPPYYEGIGNGTQIYVIDPEPCPDSDQ[letters of human IgG1 Fc with changes not shown]
notes: Tested as unpurified COS cell culture medium

- fold slower “off” rate than wild type CTLA4Ig (CD86Ig [1]): ~4 fold
B2: L104EA29TIg (Fc fusion)
chain: MHVAQPAVVLASSRGIASFVCEYASPGKTTEVRVTVLRQADSQVTEVCAATYMMGNELTFLDDSICTGTSSGNQVNLTIQGLRAMDTGLYICKVELMYPPPYYEGIGNGTQIYVIDPEPCPDSDQ[letters of human IgG1 Fc with changes not shown]
notes: as for B1

- fold slower “off” rate than wild type CTLA4Ig (CD86Ig [1]): ~4 fold
B3: L104EA29WIg (Fc fusion)
chain: MHVAQPAVVLASSRGIASFVCEYASPGKWTEVRVTVLRQADSQVTEVCAATYMMGNELTFLDDSICTGTSSGNQVNLTIQGLRAMDTGLYICKVELMYPPPYYEGIGNGTQIYVIDPEPCPDSDQ[letters of human IgG1 Fc with changes not shown]
notes: as for B1

- Kd (CD80Ig [2]): 195 nM
- koff (CD86Ig [3]): 0.84 s⁻¹
- kon (CD86Ig [3]): 1.65e+06 M⁻¹ s⁻¹
- Kd (CD86Ig [4]): 511 nM
- koff (CD80Ig [5]): 0.23 s⁻¹
- kon (CD80Ig [5]): 1.2e+06 M⁻¹ s⁻¹
B4: CTLA4XC120S (receptor)
chain: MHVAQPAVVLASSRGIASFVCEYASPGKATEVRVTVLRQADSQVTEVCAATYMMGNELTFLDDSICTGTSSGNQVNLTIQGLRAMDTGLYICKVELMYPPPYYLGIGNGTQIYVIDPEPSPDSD
notes: It is the CTLA4 extracellular domain (+1 to +124) with C120S, made from an oncostatin M-CTLA4 plasmid; also called single chain CTLA4XC120S; monomeric CTLA4 extracellular domain
